This is one part of the list. Many values rest on one well or one pass, so single values are uncertain.
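Also: cell number obtained by counting DAPI-stained nuclei in high-throughput microscope images with image analysis software, screen run in 1,536-well plates.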

In one assay the test system is G361. The assay can be described thus: cell count relative to DMSO control; melanoma cells; higher = more viable cells. Conditions: library dose: low library concentration; 72 h.
The compound `Clc1ccc(Nc2nnc(Cc3ccncc3)c3ccccc23)cc1` [vatalanib] + C[C@]1(c2nc3c(C(N)=O)cccc3[nH]2)CCCN1 [Veliparib] (first compound 2 µM, partner dose 1.4 µM) came in with a cell count of 86.2%. `C#Cc1cccc(Nc2ncnc3cc(OCCOC)c(OCCOC)cc23)c1` [erlotinib] + C[C@]1(c2nc3c(C(N)=O)cccc3[nH]2)CCCN1 [Veliparib] (first compound 0.8 µM, partner dose 1.4 µM) returned a cell count of 80.1%. The same measure, in the same setting: in the case of `OCc1c[nH]c2ccccc12` [Indole-3-carbinol] + Cn1nnc2c(C(N)=O)ncn2c1=O [temozolomide] (first compound 0.8 µM, partner dose 2 µM) it was 89.1%. Regarding `Cn1c(Nc2ccc(C(F)(F)F)cc2)nc2cc(Oc3ccnc(-c4ncc(C(F)(F)F)[nH]4)c3)ccc21` + Nc1cccc2c1CN(C1CCC(=O)NC1=O)C2=O [lenalidomide] (first compound 0.08 µM, partner dose 1 µM), the cell count amounted to 75.2%.

`Nc1cccc2c1CN(C1CCC(=O)NC1=O)C2=O` (stereo not given) [lenalidomide] + Cn1nnc2c(C(N)=O)ncn2c1=O [temozolomide] (first compound 1 µM, partner dose 2 µM) displayed a cell count of 77.2%.

In turn, `O=C(CCCCCCC(=O)Nc1ccccc1)NO` [vorinostat] + COc1cc(Nc2ncc(F)c(Nc3ccc4c(n3)NC(=O)C(C)(C)O4)n2)cc(OC)c1OC [Tamatinib] (first compound 0.08 µM, partner dose 0.4 µM) came in with a cell count of 102%.

Regarding `Cn1c(Nc2ccc(C(F)(F)F)cc2)nc2cc(Oc3ccnc(-c4ncc(C(F)(F)F)[nH]4)c3)ccc21` + Cn1cncc1[C@@](N)(c1ccc(Cl)cc1)c1ccc2c(c1)c(-c1cccc(Cl)c1)cc(=O)n2C [tipifarnib] (first compound 0.08 µM, partner dose 0.01 µM), the cell count was 57.9%. `C#Cc1cccc(Nc2ncnc3cc(OCCOC)c(OCCOC)cc23)c1` [erlotinib] + Cn1c(Nc2ccc(C(F)(F)F)cc2)nc2cc(Oc3ccnc(-c4ncc(C(F)(F)F)[nH]4)c3)ccc21 [CHIR265] (first compound 0.8 µM, partner dose 0.08 µM) showed a cell count of 77.8%. On the same count and under the same terms, the result for `Clc1ccc(Nc2nnc(Cc3ccncc3)c3ccccc23)cc1` [vatalanib] + C#Cc1cccc(Nc2ncnc3cc(OCCOC)c(OCCOC)cc23)c1 [erlotinib] (first compound 2 µM, partner dose 0.8 µM) reads 85.1%; that for `OCc1c[nH]c2ccccc12` [Indole-3-carbinol] + Nc1cccc2c1CN(C1CCC(=O)NC1=O)C2=O [lenalidomide] (first compound 0.8 µM, partner dose 1 µM), 89.5%; that for `Clc1ccc(Nc2nnc(Cc3ccncc3)c3ccccc23)cc1` [vatalanib] + Cn1c(Nc2ccc(C(F)(F)F)cc2)nc2cc(Oc3ccnc(-c4ncc(C(F)(F)F)[nH]4)c3)ccc21 [CHIR265] (first compound 2 µM, partner dose 0.08 µM), 70.5%. The same measure, in the same setting: in the case of `Cn1c(Nc2ccc(C(F)(F)F)cc2)nc2cc(Oc3ccnc(-c4ncc(C(F)(F)F)[nH]4)c3)ccc21` + C[C@]1(c2nc3c(C(N)=O)cccc3[nH]2)CCCN1 [Veliparib] (first compound 0.08 µM, partner dose 1.4 µM) it was 50.1%. Still for that read-out and setting: the result for `OCc1c[nH]c2ccccc12` [Indole-3-carbinol] + Cc1nc(Nc2ncc(C(=O)Nc3c(C)cccc3Cl)s2)cc(N2CCN(CCO)CC2)n1 [dasatanib] (first compound 0.8 µM, partner dose 0.004 µM) reads 83.6%; that for `Cn1c(Nc2ccc(C(F)(F)F)cc2)nc2cc(Oc3ccnc(-c4ncc(C(F)(F)F)[nH]4)c3)ccc21` + COCC[n+]1c2c(n(Cc3cnccn3)c1C)C(=O)c1ccccc1C2=O [YM155] (first compound 0.08 µM, partner dose 0.0004 µM), 67.6%. `Clc1ccc(Nc2nnc(Cc3ccncc3)c3ccccc23)cc1` [vatalanib] + C=CCn1c(=O)c2cnc(Nc3ccc(N4CCN(C)CC4)cc3)nc2n1-c1cccc(C(C)(C)O)n1 [MK1775] (first compound 2 µM, partner dose 0.02 µM) gave a cell count of 90.3%. Still for that read-out and setting: in the case of `Clc1ccc(Nc2nnc(Cc3ccncc3)c3ccccc23)cc1` [vatalanib] + Nc1cccc2c1CN(C1CCC(=O)NC1=O)C2=O [lenalidomide] (first compound 2 µM, partner dose 1 µM) it was 96.7%.

The subject of a further assay is IPC-298. Described as above. Conditions: library dose: low library concentration; 72 h.
In turn, `OCc1c[nH]c2ccccc12` [Indole-3-carbinol] + COCC[n+]1c2c(n(Cc3cnccn3)c1C)C(=O)c1ccccc1C2=O [YM155] (first compound 0.8 µM, partner dose 0.0004 µM) displayed a cell count of 88.9%. Still for that read-out and setting: the result for `OCc1c[nH]c2ccccc12` [Indole-3-carbinol] + C[C@]1(c2nc3c(C(N)=O)cccc3[nH]2)CCCN1 [Veliparib] (first compound 0.8 µM, partner dose 1.4 µM) reads 103%. On the same count and under the same terms, the result for `OCc1c[nH]c2ccccc12` [Indole-3-carbinol] + C#Cc1cccc(Nc2ncnc3cc(OCCOC)c(OCCOC)cc23)c1 [erlotinib] (first compound 0.8 µM, partner dose 0.8 µM) reads 86.6%. On the same count and under the same terms, the result for `C#Cc1cccc(Nc2ncnc3cc(OCCOC)c(OCCOC)cc23)c1` [erlotinib] + Cn1nnc2c(C(N)=O)ncn2c1=O [temozolomide] (first compound 0.8 µM, partner dose 2 µM) reads 94.2%.

For the compound `C#Cc1cccc(Nc2ncnc3cc(OCCOC)c(OCCOC)cc23)c1` [erlotinib] + Cc1nc(Nc2ncc(C(=O)Nc3c(C)cccc3Cl)s2)cc(N2CCN(CCO)CC2)n1 [dasatanib] (first compound 0.8 µM, partner dose 0.004 µM), the cell count amounted to 91.7%. On the same count and under the same terms, in the case of `Cn1c(Nc2ccc(C(F)(F)F)cc2)nc2cc(Oc3ccnc(-c4ncc(C(F)(F)F)[nH]4)c3)ccc21` + Cn1nnc2c(C(N)=O)ncn2c1=O [temozolomide] (first compound 0.08 µM, partner dose 2 µM) it was 48.2%; in that of `COCC[n+]1c2c(n(Cc3cnccn3)c1C)C(=O)c1ccccc1C2=O` + C[C@]1(c2nc3c(C(N)=O)cccc3[nH]2)CCCN1 [Veliparib] (first compound 0.0004 µM, partner dose 1.4 µM), 104%. Same read-out and setting: the result for `OCc1c[nH]c2ccccc12` [Indole-3-carbinol] + COc1cc(Nc2ncc(F)c(Nc3ccc4c(n3)NC(=O)C(C)(C)O4)n2)cc(OC)c1OC [Tamatinib] (first compound 0.8 µM, partner dose 0.4 µM) reads 68.4%; that for `Clc1ccc(Nc2nnc(Cc3ccncc3)c3ccccc23)cc1` [vatalanib] + C[C@@H]1CCN(C(=O)CC#N)C[C@@H]1N(C)c1ncnc2[nH]ccc12 [CP690550] (first compound 2 µM, partner dose 1 µM), 92.8%. The compound `C#Cc1cccc(Nc2ncnc3cc(OCCOC)c(OCCOC)cc23)c1` [erlotinib] + COCC[n+]1c2c(n(Cc3cnccn3)c1C)C(=O)c1ccccc1C2=O [YM155] (first compound 0.8 µM, partner dose 0.0004 µM) displayed a cell count of 86.2%. Still for that read-out and setting: the result for `Clc1ccc(Nc2nnc(Cc3ccncc3)c3ccccc23)cc1` [vatalanib] + COCC[n+]1c2c(n(Cc3cnccn3)c1C)C(=O)c1ccccc1C2=O [YM155] (first compound 2 µM, partner dose 0.0004 µM) reads 96.3%; that for `OCc1c[nH]c2ccccc12` [Indole-3-carbinol] + COc1ccc(Cl)c(Nc2nc3ccccc3nc2NS(=O)(=O)c2cccc(NC(=O)C(C)(C)N)c2)c1 [XL147] (first compound 0.8 µM, partner dose 0.8 µM), 96.7%. `Nc1cccc2c1CN(C1CCC(=O)NC1=O)C2=O` (stereo not given) [lenalidomide] + C[C@]1(c2nc3c(C(N)=O)cccc3[nH]2)CCCN1 [Veliparib] (first compound 1 µM, partner dose 1.4 µM) showed a cell count of 98.7%. Regarding `COCC[n+]1c2c(n(Cc3cnccn3)c1C)C(=O)c1ccccc1C2=O` + O=C(CCCCCCC(=O)Nc1ccccc1)NO [vorinostat] (first compound 0.0004 µM, partner dose 0.08 µM), the cell count stood at 98.8%. On the same count and under the same terms, the result for `OCc1c[nH]c2ccccc12` [Indole-3-carbinol] + Cn1c(Nc2ccc(C(F)(F)F)cc2)nc2cc(Oc3ccnc(-c4ncc(C(F)(F)F)[nH]4)c3)ccc21 [CHIR265] (first compound 0.8 µM, partner dose 0.08 µM) reads 60.2%.

Take `COCC[n+]1c2c(n(Cc3cnccn3)c1C)C(=O)c1ccccc1C2=O` + Nc1cccc2c1CN(C1CCC(=O)NC1=O)C2=O [lenalidomide] (first compound 0.0004 µM, partner dose 1 µM): the cell count was 93.2%. `COCC[n+]1c2c(n(Cc3cnccn3)c1C)C(=O)c1ccccc1C2=O` + Cn1nnc2c(C(N)=O)ncn2c1=O [temozolomide] (first compound 0.0004 µM, partner dose 2 µM) returned a cell count of 75.8%. Same read-out and setting: in the case of `Clc1ccc(Nc2nnc(Cc3ccncc3)c3ccccc23)cc1` [vatalanib] + COc1ccc(Cl)c(Nc2nc3ccccc3nc2NS(=O)(=O)c2cccc(NC(=O)C(C)(C)N)c2)c1 [XL147] (first compound 2 µM, partner dose 0.8 µM) it was 84.6%. Same read-out and setting: in the case of `Cn1c(Nc2ccc(C(F)(F)F)cc2)nc2cc(Oc3ccnc(-c4ncc(C(F)(F)F)[nH]4)c3)ccc21` + C[C@@H]1CCN(C(=O)CC#N)C[C@@H]1N(C)c1ncnc2[nH]ccc12 [CP690550] (first compound 0.08 µM, partner dose 1 µM) it was 67.8%.
